For 39 compounds, relative growth results are on record in the supplement of paper PMC9446081.

In all, about 39,000 compounds went through this assay and about 220 (0.56%) showed activity. Some of the results follow.
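Also: static incubation at 37 °C against the wild-type strain, values averaged over two biological replicates.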

This assay relates to Escherichia coli K-12 BW25113. The experiment in a line: relative growth (OD600 normalised to plate interquartile mean) (fraction); higher = less growth inhibition, active = 0.2 or less. Conditions: 50 µM; LB; incubation time: overnight (16-24 h).
On to `COc1ccc(S(=O)(=O)Nc2ccc3c(c2)CC(=O)N([C@@H](C)CO)C[C@@H](C)[C@H](CN(C)C(=O)Nc2c(C)noc2C)O3)cc1`, for which the relative growth was inactive: 0.993. The same measure for `C[C@H]1CN([C@@H](C)CO)C(=O)Cc2cc(NC(=O)Nc3cccc4ccccc34)ccc2O[C@H]1CN(C)Cc1ccc(-c2ccccc2)cc1`: inactive: 0.973. On to `Nc1nnc(CC(=O)O)[nH]1`, for which the relative growth is inactive: 1.03. The same measure for `CCOC(=O)[C@H]1C/C=C/C[C@H](C(=O)OCC)C(=O)O[C@H]2[C@@H](OC)O[C@H](CO)[C@@H](OC(=O)Nc3ccc(Br)cc3)[C@@H]2OC1=O`: inactive: 1.02; for `COc1ccc(S(=O)(=O)Nc2cccc3c2O[C@H](CN(C)Cc2ccc(Oc4ccccc4)cc2)[C@@H](C)CN([C@@H](C)CO)C3=O)cc1`: inactive: 1.02.

As for `C[C@H](CO)N1C[C@H](C)[C@@H](CN(C)Cc2ccc(Cl)c(Cl)c2)OCCCC[C@H](C)Oc2ccc(NS(C)(=O)=O)cc2C1=O`, the relative growth is inactive: 1.01. The same measure for `COCC#Cc1ccc([C@@H]2[C@H]3CN(C(=O)C4CCOCC4)CC(=O)N3[C@H]2CO)cc1`: inactive: 0.926; for `CC(C)N1C[C@H](C)[C@@H](CN(C)Cc2ccc(Oc3ccccc3)cc2)Oc2c(NC(=O)C3CCN(C)CC3)cccc2C1=O`: inactive: 0.958. The same measure for `COc1cccc(-c2cn(CC[C@@H]3CC[C@H](NC(=O)CN(C)C)[C@@H](CO)O3)nn2)c1`: inactive: 0.994; for `Cc1ccc(O)c(C(C)(C)C)c1`: inactive: 0.97. For `Cc1cccc(=O)n1CCCCN`, the relative growth is inactive: 1.02. With `COc1ccc(S(=O)(=O)N(C)C[C@H]2Oc3ccc(NC(=O)CCC(F)(F)F)cc3CC(=O)N([C@H](C)CO)C[C@H]2C)cc1` the figure was inactive: 1.03; with `CC(C)CC#Cc1cnc2c(c1)C(=O)N([C@@H](C)CO)C[C@@H](C)[C@H](CN(C)S(=O)(=O)c1ccccc1)O2`, inactive: 1.02.

In the case of `C[C@H](CO)N1C[C@H](C)[C@@H](CN(C)C(=O)c2cccnc2)Oc2cc(C#CC3(O)CCCC3)ccc2S1(=O)=O`, the relative growth is inactive: 0.994. Take `COc1cccc(NC(=O)N(C)C[C@H]2Oc3cc(C#Cc4ccncc4)ccc3S(=O)(=O)N([C@@H](C)CO)C[C@@H]2C)c1`: the relative growth is inactive: 1.02. The same measure for `O=C(C[C@@H]1C[C@@H]2c3cc(NS(=O)(=O)c4ccc(F)cc4)ccc3O[C@@H]2[C@@H](CO)O1)NCCc1ccccc1`: inactive: 1.03; for `C[C@H]1CN([C@@H](C)CO)C(=O)c2c(c3ccccc3n2C)-c2ccccc2CO[C@H]1CN(C)S(C)(=O)=O`: inactive: 0.986. The same measure for `C[C@H](CO)N1C[C@H](C)[C@H](CN(C)Cc2ccc3c(c2)OCO3)Oc2ccc(NS(=O)(=O)c3cn(C)cn3)cc2CC1=O`: inactive: 1.01. As for `NS(=O)(=O)c1ccc(NC(=O)[C@H]2CCCNC2=O)cc1`, the relative growth was inactive: 1.04. With `CNCC(O)C(O)C(O)C(O)CO` (centres undefined) the figure was inactive: 1.07; with `C[C@H]1CN([C@@H](C)CO)C(=O)Cc2cc(NS(=O)(=O)c3cn(C)cn3)ccc2O[C@@H]1CN(C)C(=O)Nc1ccc2c(c1)OCO2`, inactive: 1.02; with `COc1ccc(S(=O)(=O)N(C)C[C@@H]2Oc3ccc(NC(=O)CCN4CCOCC4)cc3C(=O)N([C@H](C)CO)C[C@@H]2C)cc1`, inactive: 1.02. With `C[C@@H]1CN([C@H](C)CO)C(=O)Cc2cc(NS(=O)(=O)c3ccccc3)ccc2O[C@@H]1CN(C)Cc1ccc(Cl)c(Cl)c1`, the relative growth was inactive: 0.997. With `CC(C)CC#Cc1ccc2c(c1)O[C@@H](CN(C)C(=O)c1ccccn1)[C@@H](C)CN([C@@H](C)CO)S2(=O)=O` the figure was inactive: 0.985. As for `O=C1O[C@@H](c2ccccc2)[C@@H](c2ccccc2)N2[C@@H](c3ccc(OCCO)cc3)[C@]3(C(=O)Nc4ccc(C#CC5=CCCCC5)cc43)[C@@H](C(=O)NC[C@H](O)c3ccccc3)[C@H]12`, the relative growth is inactive: 1.08.

As for `CCCC1CC(C(=O)NC(C(C)Cl)C2OC(SC)C(O)C(O)C2O)N(C)C1.Cl` (centres undefined), the relative growth was inactive: 0.809.

For `Cc1cc(C(=O)Nc2ccc3c(c2)C(=O)N(C)[C@H]2CC[C@@H](CC(=O)NCC(F)(F)F)O[C@H]2CO3)no1`, the relative growth is inactive: 1.05.

For the compound `O=C(c1ccc(-n2cnnn2)cc1)N1CCN([C@H]2CCS(=O)(=O)C2)CC1`, the relative growth is inactive: 0.992.

For `Cc1ccc(S(=O)(=O)N(C)C[C@@H]2OCCCC[C@@H](C)Oc3ccc(NC(=O)Nc4ccc(C(F)(F)F)cc4)cc3C(=O)N([C@@H](C)CO)C[C@H]2C)cc1`, the relative growth is inactive: 1.04. With `COCC(=O)Nc1ccc2c(c1)C(=O)N(C)C[C@@H](OC)[C@H](C)CN(C(=O)Cc1ccccn1)[C@H](C)CO2` the figure was inactive: 1; with `[N-]=[N+]=Nc1ccccc1[C@H]1OC(c2ccc(OCCCO)cc2)=N[C@@]1(CCS(=O)(=O)c1ccccc1)C(=O)NC[C@@H](O)CO`, inactive: 0.997. With `C[C@H]1CN([C@@H](C)CO)C(=O)Cc2cc(NC(=O)Nc3ccc4c(c3)OCO4)ccc2O[C@H]1CN(C)Cc1ccc(C(=O)Nc2ccccc2N)cc1` the figure was inactive: 1.03; with `COCC#Cc1cnc2c(c1)C(=O)N([C@H](C)CO)C[C@H](C)[C@@H](CN(C)S(=O)(=O)c1cccc(OC)c1)O2`, inactive: 1; with `C[C@@H]1CCCCO[C@H](CN(C)C(=O)C2CCCCC2)[C@@H](C)CN([C@H](C)CO)C(=O)c2cc(NC(=O)c3ccccc3)ccc2O1`, inactive: 0.991.

Consider `Cc1ccc(S(=O)(=O)Nc2ccc3c(c2)CC(=O)N([C@@H](C)CO)C[C@H](C)[C@@H](CN(C)S(=O)(=O)c2ccc(F)cc2)O3)cc1`, for which the relative growth was inactive: 0.988.

As to `C[C@@H]1CN([C@@H](C)CO)C(=O)c2cc(-c3cncnc3)cnc2O[C@H]1CN(C)C(=O)Nc1ccc2c(c1)OCO2`, the relative growth is inactive: 0.969. With `COc1ccc(S(=O)(=O)N(C)C[C@@H]2OCCCC[C@@H](C)Oc3ccc(NS(=O)(=O)c4ccc(Cl)cc4)cc3C(=O)N([C@H](C)CO)C[C@H]2C)cc1` the figure was inactive: 1.03; with `O=C(/C=c1/nc2c([nH]c1=O)=NON2)c1ccccc1`, inactive: 0.76. In the case of `COc1ccc(CN(C)C[C@H]2OCCCC[C@H](C)Oc3ccc(NS(=O)(=O)c4ccccc4)cc3C(=O)N([C@H](C)CO)C[C@@H]2C)cc1`, the relative growth was inactive: 1.02.
